According to the BET-seq Pho4 binding data (Le et al. 2018):
This is one part of the list. These are noisy estimates, calculated here from bound and input reads.

target: T1, Pho4 (S. cerevisiae) (UniProt P07270); assay: relative binding free energy (BET-seq); higher = weaker binding; details: reference: library average
T1 sequence: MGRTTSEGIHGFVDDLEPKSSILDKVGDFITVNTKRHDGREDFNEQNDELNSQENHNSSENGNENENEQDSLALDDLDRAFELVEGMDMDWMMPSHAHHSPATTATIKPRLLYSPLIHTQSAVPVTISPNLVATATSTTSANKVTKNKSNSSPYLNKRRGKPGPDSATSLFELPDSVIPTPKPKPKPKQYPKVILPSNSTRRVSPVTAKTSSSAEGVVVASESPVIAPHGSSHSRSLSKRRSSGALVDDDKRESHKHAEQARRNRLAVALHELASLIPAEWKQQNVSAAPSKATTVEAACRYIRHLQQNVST

Relative binding free energy, 0.13 kcal/mol:
ATGGACACGTGGAATG
AGTAACACGTGTGGCT
TATTACACGTGTTGCG
GTGATCACGTGTCGAG
AGTTACACGTGTTGGC
ATATACACGTGTGTGG
GGTATCACGTGGGTAT
GGAGGCACGTGAGTTA

Relative binding free energy, 0.42 kcal/mol:
TGATTCACGTGAAGAG
GGATGCACGTGAAGAG
TGGTTCACGTGAGTCA

Relative binding free energy, 0.09 kcal/mol:
AATTACACGTGGTAGA
TCGGTCACGTGTGGTA
ACGGTCACGTGTAGGC
GGAGTCACGTGGTGAG

Relative binding free energy, 0.17 kcal/mol:
AACTTCACGTGTTTGG
TTCTGCACGTGAGTGA
TGCTGCACGTGATGGG
AAGTGCACGTGATGGA
AGGGCCACGTGAATGT

Relative binding free energy, 0.23 kcal/mol:
GTAGGCACGTGAATGT
ATTCGCACGTGAAGGT
CGTGACACGTGAAGTT
AGGGTCACGTGACGTA

Relative binding free energy, 0.05 kcal/mol:
TTAATCACGTGTTTTG
GTTTCCACGTGTGCGG
TTTTGCACGTGCCATG
ACGGGCACGTGGAATT

Relative binding free energy, -0.15 kcal/mol:
ATAAGCACGTGTGTCG

Relative binding free energy, 0.21 kcal/mol:
ACTGTCACGTGATATG
CGGGTCACGTGTGAAG
TTTTACACGTGAGATG

Relative binding free energy, -0.1 kcal/mol:
AGAGACACGTGGGCGG
TTTTGCACGTGGCTAA
GTTAACACGTGCTTGG

Relative binding free energy, 0.35 kcal/mol:
GTATACACGTGGAAAT
ACTTTCACGTGTAGAT

Relative binding free energy, 0.14 kcal/mol:
TGACACACGTGTGGAT
TTAGGCACGTGAACAG
TGTTACACGTGATTAA

Relative binding free energy, 0.22 kcal/mol:
GTTTTCACGTGCAGTA
AATTACACGTGAGGGT

Relative binding free energy, -0.18 kcal/mol:
CTAGGCACGTGGGTTG

Relative binding free energy, 0.25 kcal/mol:
GGTTGCACGTGAGTGG
TAAATCACGTGATTAT

Relative binding free energy, -0.01 kcal/mol:
GGTAACACGTGGTTTA
CTTGTCACGTGGAGGG
TCGGACACGTGTCGGG
GGCGGCACGTGCAGTT
TCTGTCACGTGGTATA
CCAGTCACGTGCGGGG
TGAGTCACGTGGTCGC
GTATCCACGTGGTATG
TAGGACACGTGGCCGG

Relative binding free energy, 0.24 kcal/mol:
TTTTGCACGTGAGTAT
GGTGGCACGTGAGAGG
TGGGCCACGTGTGAAA
TCATTCACGTGTTGTA
TTTTGCACGTGAGGGT

Relative binding free energy, 0.07 kcal/mol:
CGCATCACGTGGGTGT
GGTATCACGTGGGGTA
AGTGGCACGTGAGAGC
GATGTCACGTGGGAGG
TGGCACACGTGTTTGT
CATGTCACGTGGGATA

Relative binding free energy, -0.25 kcal/mol:
TGGGGCACGTGCTTAG
GTTGCCACGTGGGGGT

Relative binding free energy, -0.03 kcal/mol:
CTTTGCACGTGGGAGT
TGGTGCACGTGGATAC
TTCCGCACGTGTGTTG

Relative binding free energy, -0.36 kcal/mol:
TTGCGCACGTGGTCTG

Relative binding free energy, -0.12 kcal/mol:
TTAACCACGTGGTTTT
ATGGGCACGTGTTACT
TACGGCACGTGCGGTG

Relative binding free energy, 0.3 kcal/mol:
TTATTCACGTGTACTG

Relative binding free energy, 0.01 kcal/mol:
GATGGCACGTGATGAT
GGGTCCACGTGTTATG
CCGGTCACGTGGAGTG
TTCTGCACGTGATAGT
TCATGCACGTGTTGAG
TTGTACACGTGGTTGA
TTCAACACGTGTTGAT
TGTATCACGTGGGCTC

Relative binding free energy, 0.19 kcal/mol:
GTCGGCACGTGAGAGG
TGAGGCACGTGAAAAG
AGTTGCACGTGAGTGC
AAAGTCACGTGATGTG
ATACACACGTGTGGTT
GGTGTCACGTGTCGGG

Relative binding free energy, 0.02 kcal/mol:
AATCGCACGTGTGGTG
GGAGTCACGTGGTGTC
ACTAGCACGTGTGTGT
CCGGTCACGTGGGGTT
AGCCGCACGTGTGTGT

Relative binding free energy, -0.04 kcal/mol:
GAGTGCACGTGCGTGC
AGGACCACGTGTGGTT
AGGTGCACGTGTTTTG
ATTGGCACGTGTTCAT
AGTAGCACGTGTTTTA

Relative binding free energy, 0.41 kcal/mol:
TGGCTCACGTGAGTGG

Relative binding free energy, -0.26 kcal/mol:
TGATGCACGTGGGCAT

Relative binding free energy, -0.08 kcal/mol:
GGAGGCACGTGGTTCG
GAGGGCACGTGTTTGT
AAATGCACGTGGATGG
GGTGGCACGTGCTGTC
TTTCCCACGTGTTTTT

Relative binding free energy, -0.19 kcal/mol:
ATTAGCACGTGTGCTG

Relative binding free energy, -0.11 kcal/mol:
TTTGTCACGTGCTCTG
ATTGACACGTGGGCTT
TTCGGCACGTGGGTTA

Relative binding free energy, 0.06 kcal/mol:
ATTTGCACGTGTTGCT
TTAGTCACGTGTATTG
AGTGGCACGTGATACG
TTGCGCACGTGATTAT
AGAGTCACGTGTGCAG

Relative binding free energy, 0.04 kcal/mol:
TTGTGCACGTGGAGAG
CATGTCACGTGTTGGG
TCGGTCACGTGGGTGA

Relative binding free energy, 0.11 kcal/mol:
TTTACCACGTGTGCGT
GTTACCACGTGTGGAG
AGGGACACGTGTGATT
CACGTCACGTGTTTGT
AGAGCCACGTGAGGGT
TTTTTCACGTGTAGCG
CAAGACACGTGTTGGT

Relative binding free energy, 0.46 kcal/mol:
TGTCTCACGTGAGTCG

Relative binding free energy, -0.07 kcal/mol:
GGGGCCACGTGGTGCC
GACGGCACGTGCGGGG
TGTATCACGTGCTGGA
TTTAGCACGTGCGGGC
CTTGTCACGTGGCTGG
CAGAGCACGTGTATGT

Relative binding free energy, -0.05 kcal/mol:
AATGACACGTGTGTTT
GAGAGCACGTGTTGTG

Relative binding free energy, -0.23 kcal/mol:
CTTAGCACGTGGCTGG
TGCTGCACGTGGGCGG

Relative binding free energy, -0.14 kcal/mol:
TAAGGCACGTGTTGAT
AAGCGCACGTGTGGGG
ATTTGCACGTGGGTTA
GGCAGCACGTGGGGTG
TCGAGCACGTGGCGTG

Relative binding free energy, -0.17 kcal/mol:
TGTGCCACGTGGGAAG

Relative binding free energy, 0.16 kcal/mol:
GGTTGCACGTGTCATA
TGCTACACGTGTGGGC
GGTCTCACGTGGTTTC
GAATGCACGTGTGCTT

Relative binding free energy, -0.16 kcal/mol:
CTTGTCACGTGGGATT
AGCTGCACGTGGGTCG

Relative binding free energy, 0.26 kcal/mol:
TCGCTCACGTGATGGT
AGGTTCACGTGGATCG

Relative binding free energy, 0 kcal/mol:
ATTGTCACGTGGGCTC
AGAATCACGTGCGGTT
AGAAACACGTGTTAGG
AGTAGCACGTGAGCGG

Relative binding free energy, 0.36 kcal/mol:
TATGTCACGTGAGATG
TGGCTCACGTGATATG

Relative binding free energy, 0.15 kcal/mol:
CTGGGCACGTGAGATG
GTTTACACGTGGTGGC
TAGAACACGTGGTCGG
GATGGCACGTGAGTTT
AGGCTCACGTGGCAGG
GGGTTCACGTGCGCAT
AGGGCCACGTGAGGAT

Relative binding free energy, 0.43 kcal/mol:
GAGGTCACGTGAATGG

Relative binding free energy, 0.33 kcal/mol:
GTCTTCACGTGTTGAA
GGGATCACGTGTTCGG

Relative binding free energy, 0.08 kcal/mol:
ATTGTCACGTGAAGAT
TGGTCCACGTGTTAGG
TGTGTCACGTGACGCG
TGTGACACGTGTCTGC
GTGATCACGTGGGCGC
CATGTCACGTGGGTGC
GGTATCACGTGTTCAG
TGCGTCACGTGGATTA
GTCGGCACGTGTAGTG

Relative binding free energy, -0.06 kcal/mol:
AGAGACACGTGGTATT
GGATGCACGTGGGGAT
TTTTCCACGTGGAGGT
AATAGCACGTGGCGGT

Relative binding free energy, 0.38 kcal/mol:
GCTTACACGTGTGATT
AGGCTCACGTGTTTAG
CATTTCACGTGTAGGA
GGGATCACGTGAGGTC

Relative binding free energy, -0.3 kcal/mol:
ATGGGCACGTGTTTGC

Relative binding free energy, 0.51 kcal/mol:
GTTTTCACGTGCCAGT

Relative binding free energy, -0.22 kcal/mol:
TAAGGCACGTGGGGTT
TGTGGCACGTGCCGGA

Relative binding free energy, -0.2 kcal/mol:
TAACGCACGTGTGGTT

Relative binding free energy, 0.1 kcal/mol:
GGTAACACGTGGTTCA
TTTGTCACGTGTCGCG
GGTACCACGTGTGTAT

Relative binding free energy, -0.27 kcal/mol:
GGGAGCACGTGGGCGC
ATTGGCACGTGGGCCT

Relative binding free energy, 0.28 kcal/mol:
TTCCTCACGTGTTTTG
GTCATCACGTGTGGCG
CGATTCACGTGGAGTG

Relative binding free energy, 0.2 kcal/mol:
TCATGCACGTGAAGGT
TGGAGCACGTGAAGAG
ATATTCACGTGCGAGG

Relative binding free energy, 0.03 kcal/mol:
GTGCTCACGTGGGTGT
TGGCACACGTGGTAAG
TACTTCACGTGGGGTA
ATCTTCACGTGGGTTG
GTTCACACGTGTTATG
CTCGTCACGTGTTGTA

Relative binding free energy, 0.31 kcal/mol:
CTGTTCACGTGTGTGG
AGTGACACGTGAAGTA

Relative binding free energy, -0.02 kcal/mol:
TAATGCACGTGGCAGG
TTTACCACGTGTGTAT
ATATGCACGTGTGAAG

Relative binding free energy, -0.09 kcal/mol:
TGAGCCACGTGTTGTT
GGTGCCACGTGCATGT
AAGGCCACGTGTGTGT
ATTGACACGTGGTGCG

Relative binding free energy, -0.13 kcal/mol:
GAGTGCACGTGGGTAC

Relative binding free energy, 0.56 kcal/mol:
GAGTTCACGTGAAATA

Relative binding free energy, 0.29 kcal/mol:
TAGTTCACGTGGAGCT
TATCTCACGTGGTGAG
AAATTCACGTGCGGGG

Relative binding free energy, 0.18 kcal/mol:
TTGATCACGTGTGTAT
TTCTACACGTGTGAGG
GTTGTCACGTGTTTTC
TGGCTCACGTGCTGTT

Relative binding free energy, 0.12 kcal/mol:
TTGAGCACGTGTAACT
ATGCTCACGTGGTGAG
GTCATCACGTGTTGTT

Relative binding free energy, 0.32 kcal/mol:
GTTGTCACGTGAGAGA
GGCATCACGTGTGGGT
TGACTCACGTGTGTAT

Relative binding free energy, 0.45 kcal/mol:
ATCATCACGTGAGTAG
